Experimental data published in PubChem BioAssay AID1345082 (National Center for Advancing Translational Sciences (NCATS), 2018).
The campaign covered roughly 94,000 compounds. About 4,000 (4.3%) were called active. The inconclusive results got no clear call from the source; some entries with a clear call stand among them for comparison. Calls come from the whole dose curve; as a rule, active = well fitted inhibition curve with a large enough effect; inconclusive = small, poorly fitted or top-dose-only effect; inactive = no such curve, though single readings can be large or run the other way. A potency beside an inconclusive call is a rough fit, not a confirmed value.

Assay: Cytotoxic Profiling in NIH 3T3 Cell Line of Diverse Libraries Using Quantitative High-Throughput Screening; note: nearly all actives have a fitted effect of over 55% in size
Details: NIH 3T3 viability, CellTiter-Glo ATP luminescence, 48-72 h; series mostly up to 96.7 µM
Method in brief: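 Viability of NIH 3T3 cells after 48 or 72 hr compound treatment at 37 °C was assessed by CellTiter-Glo, with luminescence imaged following a 10 min room-temperature step.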
Potency is the fitted concentration of half-maximal effect; tags give direction and shape of the fitted curve.

Row | SMILES | Potency
1 | O=C(CN1C(=O)NC(c2ccc(Cl)cc2)C2=C1COC2=O)Nc1ccc(Cl)cc1F (stereo not given) | active: 35.5 µM
2 | CC(=O)Nc1ccc(S(=O)(=O)N[C@H]2CO[C@H]3[C@@H]2OC[C@H]3OC(=O)Nc2cccc3ccccc23)cc1 | inconclusive: 35.5 µM [inhibitor, partial curve]
3 | COC(=O)c1ccc(NC(=O)c2cnc(-c3ccc(C)cc3)nc2-c2ccncc2)cc1 | inactive
4 | O=C1CC(c2noc(-c3ccc(F)cc3)n2)CN1C1CCCCC1 (stereo not given) | inconclusive: 28.2 µM [inhibitor, partial curve]
5 | CN(CC#N)C(=O)c1cc(-c2ccc(C(F)(F)F)cc2)nc2c1cnn2C | inconclusive: 44.7 µM [inhibitor, partial curve, poor fit]
6 | COc1ccccc1-c1cccc(C=O)c1 | inconclusive: 112 µM [inhibitor, partial curve]
7 | CNC(=O)[C@H]1C[C@]2(CCCCN(CCOC)C2=O)N(C(=O)c2ccno2)[C@H]1c1ccccc1 | inconclusive: 56.2 µM [inhibitor, partial curve, poor fit]
8 | CC(=O)NCCc1ncc(C)n1C1CCCCC1 | inactive
9 | CCOc1ccc(C(=O)N2CCCC3(C2)Nc2cccnc2NC3=NC2CCCC2)cc1 (stereo not given) | inconclusive: 50.1 µM [inhibitor, partial curve, poor fit]
10 | COc1ccc(CNC(=O)c2cc3n(n2)CC(c2ccc4c(c2)OCO4)OC3)c(OC)c1 (stereo not given) | inconclusive: 44.7 µM [inhibitor, partial curve, poor fit]
11 | COc1ccc(CN2C(=O)[C@@H]3C[C@@H](CN3Cc3cccnc3)Oc3ccccc32)cc1 | inconclusive: 79.4 µM [inhibitor, partial curve]
12 | O=C(Nc1ccc2c(c1)C(=O)N1CCC[C@H]1C(=O)N2)c1cc(-c2ccccc2)n[nH]1 | inconclusive: 70.8 µM [inhibitor, single point]
13 | O=C(NCc1ccccc1)c1cn(C2CN(C(=O)Nc3ccc4c(c3)OCCO4)C2)nn1 | inconclusive: 70.8 µM [inhibitor, single point]
14 | COCC(=O)N1CC[C@]2(O)CCN(C(=O)c3ccc(OC)o3)C[C@@H]2C1 | inactive
15 | CC(C)n1cc(-c2cc(C(=O)N3CCC(C)(C)C3)c3ccc(F)cc3n2)cn1 | inconclusive: 39.8 µM [inhibitor, full curve, poor fit]
16 | CCC(O)c1cc2n(n1)CCN(C(=O)CN1CCOc3ccccc3C1)C2 (stereo not given) | inactive
17 | O=C(c1ccc(F)cc1)N1CCCN(c2ccc3nnc(C4CC4)n3n2)CC1 | inactive
18 | CC1(c2ccccc2)N(Cc2cccnc2)C(=O)OC12CCN(Cc1ccccc1Cl)CC2 (stereo not given) | inconclusive: 50.1 µM [inhibitor, partial curve, poor fit]
19 | COc1cccc(C(=O)N2CCC(c3n[nH]c(=O)n3Cc3ccc(F)cc3)CC2)c1 | inconclusive: 44.7 µM [inhibitor, partial curve, poor fit]
20 | O=C(O)Cn1ccc2cc(OCC3CCN(C(=O)Cc4ccccc4)CC3)cnc21 | active: 100 µM

Row | SMILES | Potency
21 | O=C(NC1C[C@H]2CC[C@@H](C1)N2C(=O)c1ccoc1)c1ccncc1 (stereo not given in full) | inactive
22 | O=C(Cn1nc2c(cc1=O)CCCC2)NCCn1ccc2c(Cl)cccc21 | inconclusive: 35.5 µM [inhibitor, single point]
23 | NC(=O)C(=O)N1CCN2C(=O)c3cc(-c4ccc(Cl)cc4)ccc3NC(=O)[C@@H]2C1 | inconclusive: 100 µM [inhibitor, partial curve]
24 | Cc1ccc(-c2cn3cc(C(=O)NCCc4ccccc4)nc3s2)cc1 | inactive
25 | COC(=O)[C@@H]1Cc2ncn(Cc3ccc(Cl)cc3)c2CN1S(=O)(=O)Cc1ccccc1 | inconclusive: 89.1 µM [inhibitor, single point]
26 | CC(C)CCN1CCC2(C1)NC(=O)c1ccccc1CO2 (stereo not given) | inactive
27 | CCn1cc(S(=O)(=O)N2CCC3(CC2)CC2C(=O)NCCN2C3)cn1 (stereo not given) | inactive
28 | Cn1cc(CN2C[C@@H](F)[C@@H](OCc3nc4ccccc4n3C)C2)c2ccccc21 | inconclusive: 89.1 µM [inhibitor, partial curve]
29 | CN(Cc1ccc(F)cc1)c1ccc2ncc(Nc3ccc(CCO)cc3)n2n1 | active: 22.4 µM
30 | CNC(=O)c1cc(C2CC2)nc2onc(C3CCN(C(=O)Nc4ccc(Cl)cc4)C3)c12 (stereo not given) | inconclusive: 44.7 µM [inhibitor, partial curve, poor fit]
31 | CS(=O)(=O)c1ccc(O[C@H]2COCCN(Cc3cccc4c3OCO4)C2)cc1 | inconclusive: 89.1 µM [inhibitor, partial curve, poor fit]
32 | Cc1cc(=O)n(CC(=O)NCc2cccs2)c(N(C)Cc2ccccc2)n1 | inconclusive: 28.2 µM [inhibitor, partial curve, poor fit]
33 | COCC(=O)N1CCC(O)(c2ccccc2)[C@H](N2CCCC2)C1 (stereo not given in full) | inconclusive: 70.8 µM [inhibitor, single point]
34 | Cc1cc(C(=O)NC2CCN(C(=O)N3CC4CC(C3)[C@H]3CCCC(=O)N3C4)CC2)nn1C (stereo not given in full) | inconclusive: 79.4 µM [inhibitor, partial curve, poor fit]
35 | Cc1ncsc1C(=O)N1CCC2(CC1)OC(=O)N(Cc1ncccn1)C2(C)c1ccccc1 (stereo not given) | inconclusive: 70.8 µM [inhibitor, single point]
36 | COc1cccc(CCC(=O)N2CCC3(CC2)N=C(c2cccc(Br)c2)NO3)c1 | inconclusive: 50.1 µM [inhibitor, partial curve, poor fit]
37 | COc1ccc(-c2cc3c(cn2)CN(Cc2cccnc2)CCN3)cc1F | inactive
38 | COCCN(C)C[C@@H]1CN(c2cc(C)c3ccc(SC)cc3n2)C[C@@H]1CO | inconclusive: 44.7 µM [inhibitor, partial curve, poor fit]
39 | Cc1cccc(C(=O)N2CCc3[nH]nc(C(=O)NCCCc4ccccc4)c3C2)c1 | inconclusive: 31.6 µM [inhibitor, full curve]
40 | Cc1ccc(C2(O)CCN(C(=O)c3cc4c(s3)CCCC4)CC2)nc1 | inactive
